# Article PMC5260975
# By UniProt entry, the sequences of proteins in these tests, tags left out.
# UniProt P25963: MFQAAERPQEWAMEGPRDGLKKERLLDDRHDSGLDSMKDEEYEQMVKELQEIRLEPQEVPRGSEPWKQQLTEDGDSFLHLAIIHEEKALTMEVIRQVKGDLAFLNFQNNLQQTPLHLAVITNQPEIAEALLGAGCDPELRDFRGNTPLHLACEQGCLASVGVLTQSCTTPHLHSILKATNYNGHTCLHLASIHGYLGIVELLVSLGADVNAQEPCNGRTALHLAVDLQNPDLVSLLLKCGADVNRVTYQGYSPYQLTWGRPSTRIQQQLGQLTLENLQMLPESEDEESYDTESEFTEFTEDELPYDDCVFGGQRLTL
# UniProt Q04206: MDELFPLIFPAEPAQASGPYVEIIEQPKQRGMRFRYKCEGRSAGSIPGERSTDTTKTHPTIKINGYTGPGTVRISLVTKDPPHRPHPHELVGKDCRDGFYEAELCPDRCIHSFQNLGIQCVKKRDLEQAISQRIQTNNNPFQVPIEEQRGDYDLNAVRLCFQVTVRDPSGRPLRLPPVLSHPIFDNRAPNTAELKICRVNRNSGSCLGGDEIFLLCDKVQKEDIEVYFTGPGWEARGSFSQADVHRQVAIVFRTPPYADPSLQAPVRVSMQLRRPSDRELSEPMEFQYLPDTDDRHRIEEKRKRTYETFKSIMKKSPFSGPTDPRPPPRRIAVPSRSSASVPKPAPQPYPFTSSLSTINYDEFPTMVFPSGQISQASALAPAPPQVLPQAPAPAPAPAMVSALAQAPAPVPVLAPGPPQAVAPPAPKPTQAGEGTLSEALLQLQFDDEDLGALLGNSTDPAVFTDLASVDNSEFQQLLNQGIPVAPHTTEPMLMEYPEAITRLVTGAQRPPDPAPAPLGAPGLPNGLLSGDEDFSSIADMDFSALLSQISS
# No constants are given. Whether binding was seen depends on the method and setting. In cells and extracts the contact can be indirect. Some binding calls cover weakened binding; strength is not graded here. For part of these data: Sequences can lack the tags named with a protein.
# Assays:
# V5-tagged ASPP2(1-360) = biological target: T1, V5-tagged ASPP2(1-360) (UniProt Q13625); test: co-IP; HEK293T co-transfected with Flag-BECN1 and V5-tagged ASPP2 (full length or fragments), EBSS 6 h at 24 h after transfection; IP with anti-V5 (in Figure 4b also with anti-Flag), western blot
# T1 sequence: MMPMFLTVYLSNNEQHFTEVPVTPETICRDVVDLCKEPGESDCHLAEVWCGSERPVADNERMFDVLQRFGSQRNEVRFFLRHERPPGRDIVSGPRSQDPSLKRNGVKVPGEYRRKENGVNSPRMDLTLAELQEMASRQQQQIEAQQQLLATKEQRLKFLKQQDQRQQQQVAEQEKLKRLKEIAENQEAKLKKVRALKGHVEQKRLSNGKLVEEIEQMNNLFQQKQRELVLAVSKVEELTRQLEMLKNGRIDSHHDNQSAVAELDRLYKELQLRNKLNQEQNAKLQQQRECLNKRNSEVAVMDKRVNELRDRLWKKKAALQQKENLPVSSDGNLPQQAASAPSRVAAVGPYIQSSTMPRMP
# V5-tagged ASPP2(360-925) = biological target: T2, V5-tagged ASPP2(360-925) (UniProt Q13625); test: as above
# T2 sequence: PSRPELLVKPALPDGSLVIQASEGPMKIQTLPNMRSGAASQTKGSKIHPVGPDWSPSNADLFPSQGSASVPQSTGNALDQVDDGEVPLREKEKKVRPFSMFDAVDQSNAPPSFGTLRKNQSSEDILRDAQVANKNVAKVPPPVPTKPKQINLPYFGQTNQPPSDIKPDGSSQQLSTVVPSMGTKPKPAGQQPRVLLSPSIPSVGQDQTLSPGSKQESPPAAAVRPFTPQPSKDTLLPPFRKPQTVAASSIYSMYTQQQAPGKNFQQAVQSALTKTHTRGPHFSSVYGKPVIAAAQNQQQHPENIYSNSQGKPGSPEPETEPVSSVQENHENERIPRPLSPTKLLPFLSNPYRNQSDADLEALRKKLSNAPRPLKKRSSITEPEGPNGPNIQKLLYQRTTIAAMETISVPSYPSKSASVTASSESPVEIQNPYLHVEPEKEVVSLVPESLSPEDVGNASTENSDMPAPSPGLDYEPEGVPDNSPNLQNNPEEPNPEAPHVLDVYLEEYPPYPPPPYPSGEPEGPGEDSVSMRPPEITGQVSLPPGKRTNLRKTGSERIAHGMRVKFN
# [1] = biological target: T3, V5-tagged ASPP2(925-1128) (UniProt Q13625); test: as above
# T3 sequence: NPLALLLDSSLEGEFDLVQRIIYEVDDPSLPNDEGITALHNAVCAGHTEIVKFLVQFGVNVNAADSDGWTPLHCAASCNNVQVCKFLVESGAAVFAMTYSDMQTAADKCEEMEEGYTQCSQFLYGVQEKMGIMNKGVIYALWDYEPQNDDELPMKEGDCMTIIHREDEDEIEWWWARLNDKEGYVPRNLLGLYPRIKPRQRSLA
# [2] = biological target: T4, V5-tagged full-length ASPP2 (UniProt Q13625); test: as above
# T4 sequence: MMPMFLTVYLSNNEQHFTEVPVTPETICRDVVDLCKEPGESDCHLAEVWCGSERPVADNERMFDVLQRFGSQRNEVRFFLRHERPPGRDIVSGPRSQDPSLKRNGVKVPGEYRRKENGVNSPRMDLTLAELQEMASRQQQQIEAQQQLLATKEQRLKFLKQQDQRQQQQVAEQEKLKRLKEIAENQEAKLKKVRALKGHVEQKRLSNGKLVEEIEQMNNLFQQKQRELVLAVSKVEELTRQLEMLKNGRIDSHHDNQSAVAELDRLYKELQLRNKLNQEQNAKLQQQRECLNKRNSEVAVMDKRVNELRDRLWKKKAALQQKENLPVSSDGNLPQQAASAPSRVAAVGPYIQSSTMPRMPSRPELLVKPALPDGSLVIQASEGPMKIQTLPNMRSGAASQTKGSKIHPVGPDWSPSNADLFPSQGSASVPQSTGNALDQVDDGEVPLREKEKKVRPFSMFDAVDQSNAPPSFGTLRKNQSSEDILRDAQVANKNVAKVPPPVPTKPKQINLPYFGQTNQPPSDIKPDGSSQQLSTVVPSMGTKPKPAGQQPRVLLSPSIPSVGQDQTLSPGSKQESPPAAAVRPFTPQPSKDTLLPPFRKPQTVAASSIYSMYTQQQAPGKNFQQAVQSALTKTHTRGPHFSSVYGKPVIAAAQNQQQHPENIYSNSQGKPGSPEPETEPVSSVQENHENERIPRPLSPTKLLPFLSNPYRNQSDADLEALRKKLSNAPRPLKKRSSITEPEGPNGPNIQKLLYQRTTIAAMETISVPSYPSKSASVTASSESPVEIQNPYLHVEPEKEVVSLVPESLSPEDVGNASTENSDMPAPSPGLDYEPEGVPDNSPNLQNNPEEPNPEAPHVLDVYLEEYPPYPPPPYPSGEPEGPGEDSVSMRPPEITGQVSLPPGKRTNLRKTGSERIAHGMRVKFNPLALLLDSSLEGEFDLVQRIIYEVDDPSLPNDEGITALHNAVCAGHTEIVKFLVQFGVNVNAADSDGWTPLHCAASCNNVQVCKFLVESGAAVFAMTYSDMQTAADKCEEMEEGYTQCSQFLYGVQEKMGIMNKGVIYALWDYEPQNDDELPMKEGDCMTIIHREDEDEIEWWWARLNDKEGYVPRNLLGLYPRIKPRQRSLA
# [3] = biological target: T5, ankyrin-repeat-containing, SH3-domain-containing, and proline-rich region-containing protein 2 (ASPP2), endogenous (human (endogenous in HCC-LM3)) (UniProt Q13625); test: co-IP; HCC-LM3 lysates, immunoprecipitated with anti-ASPP2, western blot; control cells, cells transfected with pASPP2 and ASPP2-silenced cells
# T5 sequence: T4 sequence
binding (V5-tagged ASPP2(1-360)),binding (V5-tagged ASPP2(360-925)),binding [1],binding [2],binding [3],Substance
binds,no binding,no binding,binds,,Flag-tagged full-length BECN1 (from UniProt Q14457 1-450)
,,,,binds,"IκBα, endogenous (from UniProt P25963 1-317)"
,,,,binds,"p65/RelA, endogenous (from UniProt Q04206 1-551)"
